From US20240052055A1 come the findings set out here.

Experiment [1] concerns the target mouse GPC3-His protein (Sino Biological, Cat. No. 50989-M08B) (mouse) (UniProt Q8CFZ4). The experiment can be described thus: ELISA; antibody 1 nM. (In an ELISA, binding on a coated surface is turned into a signal by an enzyme label.)
Experiment [2] has the same target. The experiment can be described thus: ELISA; antibody 10 nM.
Experiment [3] shares this target. The experiment can be described thus: ELISA; antibody 0.1 nM.
Experiment [4] shares this target. The experiment can be described thus: ELISA; antibody 100 nM.
Experiment [5] shares this target. The experiment can be described thus: ELISA; antibody 0.01 nM.
Experiment [6] has the same target. The experiment can be described thus: ELISA; antibody 0.001 nM.
Experiment [7] has the same target. The experiment can be described thus: ELISA; antibody 0.0001 nM.

Sequence of UniProt Q8CFZ4 (Q8CFZ4 25-558 limits assumed): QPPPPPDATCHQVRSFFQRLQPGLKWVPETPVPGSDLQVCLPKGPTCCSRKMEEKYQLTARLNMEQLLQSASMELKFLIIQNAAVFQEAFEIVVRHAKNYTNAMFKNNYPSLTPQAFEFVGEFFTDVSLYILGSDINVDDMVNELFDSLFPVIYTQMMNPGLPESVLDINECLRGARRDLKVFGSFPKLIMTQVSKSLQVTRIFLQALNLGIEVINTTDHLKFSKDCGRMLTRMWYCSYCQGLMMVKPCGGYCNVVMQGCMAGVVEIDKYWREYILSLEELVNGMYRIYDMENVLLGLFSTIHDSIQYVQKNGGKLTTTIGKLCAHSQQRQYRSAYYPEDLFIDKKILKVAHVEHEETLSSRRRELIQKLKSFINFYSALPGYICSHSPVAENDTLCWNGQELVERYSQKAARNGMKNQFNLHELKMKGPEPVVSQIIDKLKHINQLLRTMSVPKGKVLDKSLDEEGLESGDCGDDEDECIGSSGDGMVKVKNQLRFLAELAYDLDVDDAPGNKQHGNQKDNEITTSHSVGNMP

B1: S001-NB150-20(cyno+) VHH-hFc (Fc fusion)
chain: QVQLVESGGGLVQAGGSLKLSCAASGRSFSPYAMGWFRQAPGKDREFVAAISNSGGSTYYADAVKGRFSISRDNAKNTVYLQMNNLEPEDTAVYYCTGPVKRYSTDFQGGDYWGQGTQVTVSS[human IgG1 Fc with changes left out]
For the molecule B1, the OD450 in experiment [1] worked out at 0.074; in experiment [2] it was 0.293; in experiment [3] it was 0.053; in experiment [4], 0.837; in experiment [5], 0.049; in experiment [6], 0.05. Moreover, in experiment [7], the OD450 was determined as 0.05.
